The other results are listed elsewhere or left out.

The test system of this assay is S. aureus RN4220. The experiment in a line: growth inhibition call (relative growth <= 0.2). The note with it: 50 µM.
In the case of `C[C@H]1CCCCO[C@H](CN(C)C(=O)CCC(F)(F)F)[C@@H](C)CN([C@@H](C)CO)C(=O)c2cc(NC(=O)C3CCCCC3)ccc2O1`, the growth inhibition call was “inactive”.

Regarding `COc1ccccc1CN1C(=O)c2ccccc2[C@](Cc2ccccc2I)(C(=O)NCCCN(C)C)[C@@H]1c1ccc(CO)cc1`, the growth inhibition call was “inactive”.

In the case of `O=C(C[C@H]1C[C@H]2c3cc(NS(=O)(=O)c4ccc(F)cc4)ccc3O[C@H]2[C@@H](CO)O1)NCC(F)(F)F`, the growth inhibition call is “inactive”.

Take `CN1CCN2c3ncccc3Cc3ccccc3C2C1` (stereo not drawn): the growth inhibition call was “inactive”.

Consider `C[C@@H]1CN([C@H](C)CO)C(=O)Cc2cc(NS(=O)(=O)c3cccs3)ccc2O[C@@H]1CN(C)Cc1ccncc1`, for which the growth inhibition call is “inactive”.

For the compound `C[C@@H]1CCCCO[C@@H](CN(C)Cc2ccccc2)[C@@H](C)CN([C@@H](C)CO)C(=O)c2cc(NS(=O)(=O)c3ccc(Cl)cc3)ccc2O1`, the growth inhibition call is “inactive”.

`O=C(C[C@H]1C=C[C@@H](NC(=O)c2ccc(F)cc2)[C@@H](CO)O1)NCc1ccncn1`: the growth inhibition call was “inactive”.

Regarding `C[C@@H]1CN([C@@H](C)CO)C(=O)c2cc(C#CC3(O)CCCC3)cnc2O[C@H]1CN(C)S(=O)(=O)c1cccc(F)c1`, the growth inhibition call was “inactive”.

For the origin of these results see the antibiotic and cytotoxicity screens of Wong et al. (2023).
